From patent US20200354427A1 (Eli Lilly, published 2020)

Legend:
[1] = target: T1, human RANKL (receptor activator of nuclear factor kappa-B ligand) (human, UniProt O14788 140-317, limits assumed); assay: cell-based or functional assay
T1 sequence (looked up): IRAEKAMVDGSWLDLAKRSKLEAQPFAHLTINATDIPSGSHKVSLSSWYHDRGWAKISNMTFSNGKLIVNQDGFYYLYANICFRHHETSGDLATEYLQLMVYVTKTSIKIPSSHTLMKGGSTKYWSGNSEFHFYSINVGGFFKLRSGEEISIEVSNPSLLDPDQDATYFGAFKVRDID

[2] = target: T2, PTH receptor (PTHR1 receptor) endogenously expressed by rat osteosarcoma UMR-106 cells (rat, UniProt P25961 27-591); assay: cell-based or functional assay
T2 sequence (looked up): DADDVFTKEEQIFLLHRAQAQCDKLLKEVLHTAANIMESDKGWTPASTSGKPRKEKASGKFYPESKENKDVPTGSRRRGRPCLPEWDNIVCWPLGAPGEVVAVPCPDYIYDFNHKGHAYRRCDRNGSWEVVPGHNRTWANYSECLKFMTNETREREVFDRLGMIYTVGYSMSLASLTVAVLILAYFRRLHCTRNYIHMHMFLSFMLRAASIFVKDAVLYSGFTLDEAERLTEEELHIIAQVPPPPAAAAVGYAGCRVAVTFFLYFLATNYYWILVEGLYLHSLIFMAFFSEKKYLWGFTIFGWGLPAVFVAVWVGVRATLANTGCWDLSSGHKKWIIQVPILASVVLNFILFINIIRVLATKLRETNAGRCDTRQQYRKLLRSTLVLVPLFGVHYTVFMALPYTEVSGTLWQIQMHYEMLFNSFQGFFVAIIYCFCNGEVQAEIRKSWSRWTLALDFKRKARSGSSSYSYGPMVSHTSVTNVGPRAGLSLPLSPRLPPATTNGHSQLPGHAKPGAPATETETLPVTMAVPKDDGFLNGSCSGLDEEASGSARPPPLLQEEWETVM

murine RANKL = target: T3, murine RANKL (murine, UniProt O35235 139-316, limits assumed); assay: SPR (Biacore 2000), fusion compound captured on protein A, RANKL as analyte, 25 C, 1:1 model, n=1
T3 construct: Soluble analyte in SPR
T3 sequence (looked up): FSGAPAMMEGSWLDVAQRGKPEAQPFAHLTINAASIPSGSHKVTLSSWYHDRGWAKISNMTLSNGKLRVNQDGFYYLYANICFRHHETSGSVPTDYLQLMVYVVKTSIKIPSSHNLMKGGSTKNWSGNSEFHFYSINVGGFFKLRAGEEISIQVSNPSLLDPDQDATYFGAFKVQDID
Method: (§1) A CM5 chip (Biacore, p/n.BR-100530) containing immobilized protein A (generated using standard NHS-EDC amine coupling) on all four flow cells (Fc) is used to employ a capture methodology. Fusion compound samples are prepared at 2 μg/mL by dilution into running buffer. Human and murine RANKL samples, respectively, are prepared at final concentrations starting at 5 nM and using two-fold serial dilutions (in running buffer) for each cycle.
(§2) Each analysis cycle consists of (1) capturing antibody samples on separate flow cells (Fc2 and Fc3); (2) injection of each human and murine RANKL concentration, respectively, over all Fc at 100 μL/min for 150 seconds followed by return to buffer flow for 1.800 seconds to monitor dissociation phase; (3) regeneration of chip surfaces with injection of 1.0 mM glycine, pH 1.5, for 120 seconds at 5 μL/min over all cells; and (5) equilibration of chip surfaces with a 10 μL (60-sec) injection of HBS-EP+. Data are processed using standard double-referencing and fit to a 1:1 binding model using Biacore 2000 Evaluation software, version 2.0.3, to determine the association rate (kₒₙ, M⁻¹s⁻¹ units), dissociation rate (koff, s⁻¹ units), and Rₘₐₓ (RU units). The equilibrium dissociation constant (KD) is calculated from the relationship KD=koff/kₒₙ, and is in molar units.

[3] = target: T1, human RANKL (receptor activator of …); assay: SPR (Biacore 2000), fusion compound captured on protein A, RANKL as analyte, 25 C, 1:1 model, n=4
Method: as §1, §2

B1: exemplified fusion compound (parathyroid hormone-anti-RANKL antibody fusion compound of Table 1) (other)
heavy: SVSEIQLMHNLGKHLNSMERVEWLRKKLQDVHNFGGGGSGGGGSGGGGSQVQLVQSGAEVKKPGSSVKVSCKASGYAFTNYYIEWVRQAPGQGLEWMGVINPGWGDTNYNEKFKGRVTITADKSTSTAYMELSSLRSEDTAVYYCARRDTAHGYYALDPWGQGTTVTVSSASTKGPSVFPLAPCSRSTSESTAALGCLVKDYFPEPVTVSWNSGALTSGVHTFPAVLQSSGLYSLSSVVTVPSSSLGTKTYTCNVDHKPSNTKVDKRV[human IgG4 Fc with S228P F234A L235A (EU numbers) not written out]
light: DIQMTQSPSSLSASVGDRVTITCKASQNVGTNVAWYQQKPGKAPKLLIYSASYRYSGVPSRFSGSGSGTDFTLTISSLQPEDFATYYCQQYWDYPLTFGGGTKVEIKRTVAAPSVFIFPPSDEQLKSGTASVVCLLNNFYPREAKVQWKVDNALQSGNSQESVTEQDSKDSTYSLSSTLTLSKADYEKHKVYACEVTHQGLSSPVTKSFNRGEC
modifications: glycosylated at asparagine residue 347 of SEQ ID NO: 1
notes: PTH(1-34) joined by a (G4S)3 linker to the N-terminus of each heavy chain of an IgG4 anti-RANKL mAb; It has two first and two second polypeptides; The signal peptides are cleaved after translation; also called Exemp. fusion cmpd
How did the “IC50 (nM) hRANKL; neutralization of RANKL-induced NF-kB driven luciferase luminescence” value [1] turn out when B1 was run?
Its value is 0.067 nM.

And the “EC50 (nM); PTHR1 activation, CRE-regulated luciferase luminescence in UMR-106 cells” value [2]?
The value was 6.6 nM.

What about the Kd (murine RANKL) of the same binder?
Its Kd is 0.00837 nM.

What about the koff (murine RANKL) of the same binder?
Its koff is 9.69e-05 s⁻¹.

And the kon (murine RANKL)?
Its kon is 1.16e+07 M⁻¹ s⁻¹.

And the Kd [3]?
The Kd was 0.00482 nM.

And the koff [3]?
The koff was 1.69e-05 s⁻¹.

And the kon [3]?
Its kon is 3.5e+06 M⁻¹ s⁻¹.
